According to the supplement of paper PMC7826260:
The other results are listed elsewhere or left out. One pool of 16,384 single-stranded DNAs met each Rep nickase domain in vitro for 1 h at 37 °C with 3 µM enzyme; only the middle of the 90-letter strands is printed. Values are log2 of uncut reads against the no-enzyme pool; the lower, the more was cut; hits are not called. Shares of all reads are compared, so uncut sequences can rise above 0 when many others are cut.

Tests used:
Assay in all cases: uncleaved DNA left, log2 of reads against the no-enzyme library (log2 ratio); higher = less cleavage (more negative = more Rep cleavage of the k-mer); sequences stand for … in CTCGTCCG…ACCGGAGA
[1] = tested on: T1, Rep nickase domain of Muscovy duck circovirus
T1 sequence (residues 1-111 of Rep, tag left off): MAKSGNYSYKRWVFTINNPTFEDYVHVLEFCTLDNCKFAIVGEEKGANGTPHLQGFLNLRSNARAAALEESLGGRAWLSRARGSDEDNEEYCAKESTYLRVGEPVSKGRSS
Method: (§1)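 A pool of 90-nt single-stranded DNAs with seven random bases just before the constant AC of the nick site (name = the seven bases) was cut by 3 µM recombinant His6-SUMO-tagged Rep nickase domain (300 nM DNA, 50 mM HEPES pH 8.0, 50 mM NaCl, 1 mM MnCl2, 1 h, 37 °C, three replicates). Uncut DNA was amplified and sequenced.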

[2] = tested on: T2, Rep nickase domain of banana bunchy top virus
T2 sequence (residues 1-94 of Rep, tag left off): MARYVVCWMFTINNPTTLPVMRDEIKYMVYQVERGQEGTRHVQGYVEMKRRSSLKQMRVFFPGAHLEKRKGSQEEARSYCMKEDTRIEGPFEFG
Method: as §1

[3] = tested on: T3, Rep nickase domain of cabbage leaf curl virus
T3 sequence (residues 1-116 of Rep, tag left off): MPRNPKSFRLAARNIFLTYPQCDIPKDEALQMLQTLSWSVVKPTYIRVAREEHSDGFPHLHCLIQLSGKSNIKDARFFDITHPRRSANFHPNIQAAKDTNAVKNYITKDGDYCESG
Method: as §1

[4] = tested on: T4, Rep nickase domain of chickpea chlorotic dwarf virus
T4 sequence (residues 1-124 of Rep, tag left off): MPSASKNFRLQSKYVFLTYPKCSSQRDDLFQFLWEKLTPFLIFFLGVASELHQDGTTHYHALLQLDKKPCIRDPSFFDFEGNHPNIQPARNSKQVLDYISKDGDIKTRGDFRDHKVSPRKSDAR
Method: as §1

[5] = tested on: T5, Rep nickase domain of faba bean necrotic yellows virus
T5 sequence (residues 1-98 of Rep, tag left off): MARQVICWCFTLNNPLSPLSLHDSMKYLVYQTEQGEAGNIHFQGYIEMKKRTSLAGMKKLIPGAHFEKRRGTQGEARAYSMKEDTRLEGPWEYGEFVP
Method: as §1

[6] = tested on: T6, Rep nickase domain of maize striate mosaic virus
T6 sequence (residues 1-117 of Rep, tag left off): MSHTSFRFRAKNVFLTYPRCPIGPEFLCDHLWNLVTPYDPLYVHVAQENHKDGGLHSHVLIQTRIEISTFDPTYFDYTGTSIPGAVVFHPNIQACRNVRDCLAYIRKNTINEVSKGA
Method: as §1

[7] = tested on: T7, Rep nickase domain of porcine circovirus 2
T7 sequence (residues 2-116 of Rep, tag left off): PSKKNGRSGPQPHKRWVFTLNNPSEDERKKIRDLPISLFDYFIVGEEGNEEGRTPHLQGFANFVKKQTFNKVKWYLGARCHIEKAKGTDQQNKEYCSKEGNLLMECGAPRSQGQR
Method: as §1

[8] = tested on: T8, Rep nickase domain of tomato golden mosaic virus
T8 sequence (residues 1-124 of Rep, tag left off): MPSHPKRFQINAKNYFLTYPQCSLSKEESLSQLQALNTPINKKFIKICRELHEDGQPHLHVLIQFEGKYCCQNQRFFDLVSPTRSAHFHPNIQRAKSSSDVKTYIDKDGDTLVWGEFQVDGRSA
Method: as §1

[9] = tested on: T9, Rep nickase domain of tomato yellow leaf curl virus
T9 sequence (residues 1-136 of Rep, tag left off): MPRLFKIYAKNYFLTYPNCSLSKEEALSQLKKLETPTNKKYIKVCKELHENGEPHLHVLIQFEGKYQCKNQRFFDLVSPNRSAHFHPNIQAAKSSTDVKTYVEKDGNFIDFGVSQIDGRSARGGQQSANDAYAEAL
Method: as §1

[10] = tested on: T10, Rep nickase domain of wheat dwarf virus
T10 sequence (residues 1-137 of Rep, tag left off): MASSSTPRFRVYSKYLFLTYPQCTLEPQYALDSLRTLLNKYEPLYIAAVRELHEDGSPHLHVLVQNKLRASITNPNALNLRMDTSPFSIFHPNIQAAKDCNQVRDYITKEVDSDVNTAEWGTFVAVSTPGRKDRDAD
Method: as §1

Sequence	uncleaved DNA left (log2) [1]	uncleaved DNA left (log2) [2]	uncleaved DNA left (log2) [3]	uncleaved DNA left (log2) [4]	uncleaved DNA left (log2) [5]	uncleaved DNA left (log2) [6]	uncleaved DNA left (log2) [7]	uncleaved DNA left (log2) [8]	uncleaved DNA left (log2) [9]	uncleaved DNA left (log2) [10]
TAGAGAT	0.202	0.106	0.428	1.07	0.0744	1.81	-2.03	0.158	0.0551	0.161
TATGGGA	0.144	-0.0342	0.265	0.492	0.106	-0.0456	0.11	0.0629	0.0531	0.0668
CCTGGAT	0.00751	-0.0352	0.246	1.57	0.19	1.91	0.219	0.217	-0.117	-0.0349
CCGGCGA	0.0818	-0.255	-0.639	-0.211	-0.0965	-0.558	0.0615	-0.11	-0.0923	-0.33
GGGGTGA	0.00217	0.142	0.818	1.81	0.0534	2.18	0.251	0.0764	0.0949	0.207
TATCATA	0.000946	0.0564	0.0402	-2.02	0.00606	-0.295	-0.183	-0.0736	0.117	0.0131
TTATGCG	-0.00058	-0.153	-0.273	1.04	-0.0541	0.36	0.0845	-0.0838	-0.214	-0.0921
GAAGAGT	0.0915	0.0736	0.245	0.0841	0.0958	0.35	0.0724	0.0665	0.0669	0.109
AGAGATT	0.0518	-0.192	0.149	0.178	0.063	1.42	-0.227	0.0509	-0.209	-0.12
TAGCGGA	0.104	0.141	-0.0624	-0.167	-0.0125	-0.399	-0.0348	0.12	-0.0231	-0.0731
TTCTGGA	0.0889	-0.0444	0.0643	0.136	-0.0577	-0.187	0.0349	-0.0737	0.0239	0.0454
AGCTACA	-0.0283	0.0594	0.000761	-0.386	-0.0132	0.874	-0.3	0.115	-0.104	-0.0618
CACCAGG	0.00321	0.0341	0.164	0.626	0.0161	-0.0487	0.0955	-0.0165	0.016	0.0251
GGCAGAG	0.019	0.0671	0.666	1.46	-0.0111	1.45	0.193	0.0442	0.126	0.072
CACCGAG	-0.0106	0.0208	0.725	1.62	-0.0717	0.754	0.227	0.0977	0.112	0.166
CATGATT	-0.155	-0.883	-0.877	-2.9	-0.077	-0.703	-2.1	-0.268	-0.132	-0.371
ACATTCA	0.103	0.0347	-0.219	-1.33	0.128	-0.707	0.0954	0.0649	0.0172	0.0354
AATGATT	-0.0133	-0.191	-0.292	-2.14	-0.0658	0.661	-1.78	-0.0305	-0.159	-0.0294
CACAATG	0.0863	0.0576	-0.533	-0.505	0.0505	-1.02	0.158	0.0718	-0.0666	0.0974
GGAGCCC	0.0045	0.0836	0.551	1.29	-0.0413	1.71	0.025	0.0686	0.0467	0.0906

Sequence	uncleaved DNA left (log2) [1]	uncleaved DNA left (log2) [2]	uncleaved DNA left (log2) [3]	uncleaved DNA left (log2) [4]	uncleaved DNA left (log2) [5]	uncleaved DNA left (log2) [6]	uncleaved DNA left (log2) [7]	uncleaved DNA left (log2) [8]	uncleaved DNA left (log2) [9]	uncleaved DNA left (log2) [10]
CAACTGG	-0.0235	-0.0741	-0.195	-0.118	-0.0858	-0.569	0.0129	-0.0354	-0.012	0.0438
TTTGTTA	-0.16	-0.17	-0.0418	-0.857	-0.00935	-0.27	-0.173	-0.0218	0.0449	-0.11
CGGGCGT	0.0279	0.0135	0.079	0.417	0.0181	0.279	0.0919	-0.018	-0.00413	0.00387
CGAGACA	0.106	0.0635	0.525	0.65	0.101	1.33	0.0153	0.103	0.0787	0.134
TTCTCAC	0.0433	0.0387	0.273	-0.0809	0.029	-0.12	0.0404	-0.00402	0.052	0.114
GGCAGCC	0.166	0.173	0.618	1.42	0.0634	1.73	0.244	0.0755	0.113	0.231
CAACCGA	-0.0725	-0.0358	-0.377	-1.09	-0.04	-0.925	-0.0827	-0.0306	0.0737	-0.0113
CCAGCGG	-0.0482	0.0393	0.416	1.2	0.0102	1.11	0.0581	0.149	-0.0671	0.0465
TCCTGTA	-0.166	-0.0407	-0.0873	-0.835	-0.0607	-0.454	-0.781	-0.177	0.0234	-0.064
AGCCCCG	-0.0212	-0.137	-0.496	-0.238	-0.0304	-0.527	-0.033	-0.114	-0.101	-0.108
GCTCAGT	0.108	0.0471	0.0731	0.287	0.065	0.0366	0.114	0.0897	0.142	0.0302
ATCCTGT	-0.0462	-0.128	-0.24	-0.39	-0.178	-0.476	-0.0868	-0.087	-0.185	-0.0157
GTTAGTG	0.0631	-0.0599	-0.262	-0.394	-0.00558	-0.836	0.171	0.0717	-0.0311	-0.0221
ATCAGTA	-0.0369	-0.00436	-0.206	-1.18	0.0646	-0.932	-0.0398	0.0431	0.0472	0.0862
CGCGGAC	-0.0925	-0.109	0.512	1.35	-0.0302	1.56	0.0367	-0.108	0.0182	-0.0943
ATAAGCC	-0.121	-0.0138	-2.88	-2.9	-0.078	-2.06	-0.0172	-0.476	-0.145	-1.57
ACCATCG	-0.0499	0.00635	0.0484	1.43	-0.0203	1.04	0.0584	-0.089	0.17	-0.0405
ACTGATT	-0.0395	-0.137	-0.168	-0.453	-0.0284	0.275	-0.452	0.0115	-0.0211	0.0665
TATTTTA	-3.25	-1.4	0.033	-2.22	-0.0562	-0.228	-2.73	0.00662	0.0103	-0.0192
TGCCAAT	-0.117	-0.0981	0.0167	-0.0511	-0.0642	-0.299	-0.158	-0.17	0.13	-0.0324

Sequence	uncleaved DNA left (log2) [1]	uncleaved DNA left (log2) [2]	uncleaved DNA left (log2) [3]	uncleaved DNA left (log2) [4]	uncleaved DNA left (log2) [5]	uncleaved DNA left (log2) [6]	uncleaved DNA left (log2) [7]	uncleaved DNA left (log2) [8]	uncleaved DNA left (log2) [9]	uncleaved DNA left (log2) [10]
GATGATT	0.0786	-0.0557	0.197	-1.58	0.0294	1.09	-0.555	-0.00383	0.0234	0.11
AAAGCCC	-0.0726	-0.0162	-0.0206	-0.244	0.00911	-0.448	0.0123	0.0177	-0.142	0.0611
CGCGTCG	-0.0385	-0.0237	-0.604	-0.231	-0.0349	-0.676	0.0817	0.0217	-0.0182	-0.0749
GTAACTT	-0.0292	0.0924	0.198	0.61	-0.0796	1.75	0.0202	0.00233	0.0514	0.0786
AATGAGA	0.136	0.0837	-0.333	-0.522	0.0883	-1.02	0.144	0.0744	0.0285	-0.044
TTGTTTT	-3.06	-1.03	0.0365	-1.73	-0.577	-0.388	-3.18	-0.224	0.0101	-0.238
CGACTTA	0.103	0.301	0.22	0.46	0.0547	1.32	0.0284	-0.0275	0.0293	0.178
TATAGCC	0.121	0.000198	-0.0906	-0.529	0.106	-0.989	0.0544	-0.0564	0.0273	0.0319
GTCGTAG	-0.048	0.122	0.299	0.707	-0.041	1.83	0.0883	0.164	0.0338	0.102
TTTGGTC	0.0737	-0.0448	0.0879	-0.127	0.0856	-0.452	0.0536	-0.023	0.0298	-0.0731
ATAGGTC	0.0546	-0.00688	0.299	0.837	-0.0365	0.656	-0.00308	0.171	0.0304	0.0491
ATTTACT	-3.37	-3.52	-0.728	-3.28	-0.2	-1.12	-3.83	-0.258	-0.063	-0.329
TTAACGG	0.0882	0.118	0.552	1.56	0.0377	2.15	0.0961	0.142	-0.0545	0.139
GTCCTGG	0.0856	-0.0318	0.275	0.866	-0.00688	1.7	0.0325	0.133	0.0947	0.0228
ACCGGGT	-0.104	-0.119	0.364	0.672	-0.0244	1.34	0.182	-0.072	-0.128	0.0621
GAGGACC	0.0322	0.109	0.717	1.78	-0.0615	1.94	0.217	-0.0194	0.05	0.189
GATACAA	-0.0126	0.0432	0.256	0.648	-9.76e-05	0.719	0.117	-0.0526	0.0625	0.174
TCAGCCT	-0.0145	-0.00362	-0.18	-2.16	-0.00885	-0.477	-0.108	0.0227	-0.0426	-0.101
ACGGCCT	0.156	-0.0104	-0.199	-0.773	0.0928	-0.0351	-0.07	0.0292	-0.24	-0.0289
GAGTTCT	-0.998	-2.29	0.119	-1.92	-1.57	1.05	-3.3	-0.0957	-0.00533	0.0287
